This is one part of the list. At the low end of the ranking the order means little. The protein was read in a cell extract, so binding may be indirect.

This is an account of results in article PMC10726135.

The target in this test is T1, HNF4alpha8 (COS-7 nuclear extract) (UniProt P41235-5).
T1 sequence: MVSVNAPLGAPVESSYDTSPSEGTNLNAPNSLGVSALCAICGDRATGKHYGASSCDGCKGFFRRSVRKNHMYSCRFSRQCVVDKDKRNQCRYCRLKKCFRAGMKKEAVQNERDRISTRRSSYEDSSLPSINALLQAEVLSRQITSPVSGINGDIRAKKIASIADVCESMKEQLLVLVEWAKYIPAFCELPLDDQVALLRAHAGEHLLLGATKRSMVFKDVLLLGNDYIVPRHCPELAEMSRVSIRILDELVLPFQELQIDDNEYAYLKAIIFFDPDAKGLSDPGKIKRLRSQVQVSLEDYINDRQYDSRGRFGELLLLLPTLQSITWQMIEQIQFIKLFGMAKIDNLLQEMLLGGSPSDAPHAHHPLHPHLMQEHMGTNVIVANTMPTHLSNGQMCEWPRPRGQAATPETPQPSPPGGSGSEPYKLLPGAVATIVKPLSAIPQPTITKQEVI
Kind of test: protein-binding microarray. The settings on record: COS-7 nuclear extract on double-stranded Agilent 4x180k PBM; binding buffer, salt, pH and temperature not given; high values mean tight binding; double strand, one strand shown; sequences stand for … in …GCCTAGGGAGATTAGAGTATCGGTCGA
Regarding AGCGGCCATTTACTGACTAAAGGTTAAACA, the binding signal (log2 normalized intensity) was 2.37.

TGCCTTTGATGTTTCAGCCCTAAAGACCAC: the binding signal (log2 normalized intensity) is -0.436.

Turning to TCCCTCCCAGTACAAAGTTCACTTTCTTGT, the binding signal (log2 normalized intensity) stood at 5.45.

With AGTTTACTTCATCTAAGTGGGTCTAGGTTC, the binding signal (log2 normalized intensity) worked out at 1.84.

Take AGATCATCCTGCAGTTCCTGATCTTTGACC: the binding signal (log2 normalized intensity) was found to be 7.84.

On to CTCAGATCACAAAAGATGGAACAAGCCAGG, for which the binding signal (log2 normalized intensity) is -1.34.

Consider TATCCCTGGAGCCTTAGAAGATGACCTTTT, for which the binding signal (log2 normalized intensity) came out at 6.37.

As for AAAACAGCAGAGCACGATGAATAGGGACGT, the binding signal (log2 normalized intensity) is -1.31.

Consider CTTTATCTAAGTAAACTAGTGATGTGGAAA, for which the binding signal (log2 normalized intensity) worked out at 0.92.

Turning to ACCTGGAGCCCTTAGGGTCAATGGGACATT, the binding signal (log2 normalized intensity) was 3.33.

With GGATCGGAACCCCACCCCCACGCCCCCCAG, the binding signal (log2 normalized intensity) was found to be 7.03.

With GCACCAGAGATAATATGCTTACTTAACTCC, the binding signal (log2 normalized intensity) is -1.17.

Consider TGCTCATTGACCCTTAGGCCAAGGCTTACT, for which the binding signal (log2 normalized intensity) worked out at 2.52.

On to TTTGTCTGTGTAGACTCATCTGGTGTCATT, for which the binding signal (log2 normalized intensity) was determined as 1.95.

Consider CTTCTCCCTCTTATCAGCTGCTAAGTCTTT, for which the binding signal (log2 normalized intensity) turned out to be 0.883.

Turning to GAATGAGGGAGGCAGCCACCTAGGCCGGTC, the binding signal (log2 normalized intensity) was -1.33.

For the sequence AATGCTGCAATTCTCTTTGCCAAAGCATAG, the binding signal (log2 normalized intensity) is -1.26.

With GTATGTGGACTTTCAACTGCAGGGGGGTGG, the binding signal (log2 normalized intensity) was 3.09.

Regarding CTTATCTGGTGTGCTTTCTGTCCTCTCAAA, the binding signal (log2 normalized intensity) was 1.25.

Consider CAAATAAACCTTTGACCAATTGACCCTATC, for which the binding signal (log2 normalized intensity) turned out to be 4.69.

With AATTTAGCAAGACTGCAAAATAGACAAACA, the binding signal (log2 normalized intensity) is -1.19.

Regarding AGAGCAGGACTGATATCCTGGGCTTTTAAT, the binding signal (log2 normalized intensity) is -1.24.

As for CTTGATAACAAAAATATCACAATCCTTAAG, the binding signal (log2 normalized intensity) is -1.4.

Take TGCCCAGGGATTCCTGAAGATCGCAGACTT: the binding signal (log2 normalized intensity) is -1.26.

Take GGACATTCTATGGAATACAGCAGGGTAGAA: the binding signal (log2 normalized intensity) was -0.863.

For the sequence CTGCTCCCCTGGCCTCACCCTTGTCCCTGA, the binding signal (log2 normalized intensity) stood at 2.8.

AATCTAGGATAACTCTAGTGATCTTATCAG: the binding signal (log2 normalized intensity) was determined as 0.988.

Take CCAAAGAAAAAAGCCAATCTCTCAAATCTA: the binding signal (log2 normalized intensity) is -1.29.

On to CAGTGCAGCGGGGTCAGAGAAACCTGGCTG, for which the binding signal (log2 normalized intensity) was -1.24.

With GTTGGGCAGAAGGTGTTTCAGATGGACCAA, the binding signal (log2 normalized intensity) was determined as 1.98.

As to GGAGACTTCCAGGGAATAAAGAACTCTAAG, the binding signal (log2 normalized intensity) was -1.31.

With TAAGCTATGTGGTGGAATGGAAAGAATATG, the binding signal (log2 normalized intensity) came out at 0.046.

In the case of AGTGCCATGTAATCAAACTGAACTTTGAAA, the binding signal (log2 normalized intensity) came out at 4.48.

Consider GTCCCAGCCTAGGCCTTTGTGTAAACTCCT, for which the binding signal (log2 normalized intensity) is -0.694.

On to ATCTGGGACAAGGGGGAGGAGAGTACTGTC, for which the binding signal (log2 normalized intensity) is -1.32.

TCCGCTTGCCTGAGGGTCATGACTAAAGCA: the binding signal (log2 normalized intensity) stood at 1.13.

For the sequence AAAGCAGCCAACCAGAGGCTGAAGTGAAGT, the binding signal (log2 normalized intensity) was -1.21.

For GCAGTTTAGAGAAAGGGTCAAAGGTTAAGC, the binding signal (log2 normalized intensity) is 9.04.

Turning to CAGCCGGAGAGGCAAGTATGGTAAGGTCGA, the binding signal (log2 normalized intensity) came out at 1.53.

As for TTCCCTTGTTTACCTTGGTGTTTCTTTGAT, the binding signal (log2 normalized intensity) is 1.89.

Consider TTACCTCTGCTCCCCCTGCCCTTCGTCCTG, for which the binding signal (log2 normalized intensity) was 4.04.

For the sequence TGCAATAGAGCCACATTCTGAGACTAAAGA, the binding signal (log2 normalized intensity) is -1.25.

For CTGGCCTTTCATGCCGGCGTGACCCCCACT, the binding signal (log2 normalized intensity) was 5.79.

For GGACTTTGAACCTTGGGTCTGTAATCTCAC, the binding signal (log2 normalized intensity) came to 7.84.

Take AGAATAAGGGTTCATCTGACTGGAAGAGCC: the binding signal (log2 normalized intensity) was -0.344.

Consider ACCCCACTTTGGTTCACCGCTCACTGCTCC, for which the binding signal (log2 normalized intensity) is -0.611.

Take TACTCTAGAACACTTTCCACTCTCTACTGA: the binding signal (log2 normalized intensity) was -1.39.

Regarding CCTGGGATCGAAAGGACATTGTCCATCACC, the binding signal (log2 normalized intensity) is 1.06.

Turning to AGCCTGGGCCCCAGGGGACGTGGAATAGAT, the binding signal (log2 normalized intensity) is -0.711.

Regarding GGGACCGGCCTTTCCCGGCTGCCTAAGCAC, the binding signal (log2 normalized intensity) was -1.35.

Regarding TCTTTTGAGCTGTGGTTAAGACTCAAAGTT, the binding signal (log2 normalized intensity) came to 0.106.

For GTAAGTGTTAATGGCACTTCGTTTCAAAGT, the binding signal (log2 normalized intensity) was determined as 0.602.

Consider AGGTCACACTGATACAGCATGGCCCAGGGA, for which the binding signal (log2 normalized intensity) is -1.35.

As for TCTGATTAGAGGCTCAGGTAAAGGCATGCT, the binding signal (log2 normalized intensity) was -1.26.

As to TGCACTTATCTTAATACTTTGGAACTCAGT, the binding signal (log2 normalized intensity) was 2.06.

Consider TACATTCTTAGAAGATAAAGTGTCTCCCTC, for which the binding signal (log2 normalized intensity) was determined as 1.49.

As for CTCTCTCGTTTTTTTTTTCCCTGAGTCTGT, the binding signal (log2 normalized intensity) was 2.21.

As to AAAAAAAAAAATACTCCTATCACCGAGGGA, the binding signal (log2 normalized intensity) was -1.31.

Turning to TCTCAGGTGAGCAGAGGGAGGACAAAGTTC, the binding signal (log2 normalized intensity) came to 5.01.

In the case of GCTGAAAGTACTGGCCAGATGAGGTCAGCA, the binding signal (log2 normalized intensity) stood at 2.47.

With TCTGCAACACTTTCTAAGGACACAACAGAA, the binding signal (log2 normalized intensity) is -1.29.

Turning to GTGATGACCCCATACTTCAGCAATTTCTTA, the binding signal (log2 normalized intensity) turned out to be 1.16.

For the sequence CAAACAGAACTGTTAACTTTGTACTCAATT, the binding signal (log2 normalized intensity) stood at 2.26.

In the case of CCTATATAGTTGAGATTGTAACCGTAAATG, the binding signal (log2 normalized intensity) is 1.06.

For GCAAGACTCGTGAAAAGAGTGATCTTTGGG, the binding signal (log2 normalized intensity) turned out to be 1.27.

For the sequence TGTCCTTTGTCCTGTACCTGGGAAGATAAG, the binding signal (log2 normalized intensity) was determined as 1.55.

Regarding AGTTGTCATTTGGGGCGGGCGGTCGGAGTC, the binding signal (log2 normalized intensity) was 0.264.

On to CAGGGAACACACCATGTACAGAGAGCATTC, for which the binding signal (log2 normalized intensity) is -1.29.

In the case of TTCCTTCCAAAGGTCACAGTAGGGAAAGTG, the binding signal (log2 normalized intensity) stood at 4.11.

With TAAATGGACAGACACACCCTTCAGAGCTTG, the binding signal (log2 normalized intensity) is -1.37.

Consider ATGCATGCTGTGTGTGTGTGTGTGTGTGTG, for which the binding signal (log2 normalized intensity) was 3.21.

Take CCTGGCCTCTGAGGTGTTAACCTGATGCTG: the binding signal (log2 normalized intensity) was -0.31.

With AAGGTTGGTTTTTGGAGACAGGAGTAGTCA, the binding signal (log2 normalized intensity) came out at 0.982.
